# Results published in the supplement of paper PMC4604168 (melanoma cell lines).
# This is one part of the list. Many values rest on one well or one pass, so single values are uncertain.
# Columns and labels:
# Experiment in all cases: cell count relative to DMSO control; melanoma cells; higher = more viable cells
# Settings in all cases: library dose: low library concentration; 72 h
# [1] = tested on: MeWo
# [2] = tested on: RPMI7951
# [3] = tested on: RVH-421
# [4] = tested on: SkMel28
# [5] = tested on: SkMel30
# [6] = tested on: SkMel5
# [7] = tested on: UACC257
# [8] = tested on: UACC62
# [9] = tested on: MZ2-MEL
# 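Note: cell number obtained by counting DAPI-stained nuclei in high-throughput microscope images with image analysis software, screen run in 1,536-well plates.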
Structure (SMILES),cell count [1] [%],cell count [2] [%],cell count [3] [%],cell count [4] [%],cell count [5] [%],cell count [6] [%],cell count [7] [%],cell count [8] [%],cell count [9] [%]
"N.N.[Cl][Pt][Cl] [cisplatin] + NCC(=O)Nc1ccc(-n2nc(C(F)(F)F)cc2-c2ccc3c(ccc4ccccc43)c2)cc1 [OSU03012] (first compound 1.6 µM, partner dose 1 µM)",95,96.5,81.8,94.2,132,91.9,94.6,97.3,–
"C[C@]12O[C@H](C[C@]1(O)CO)n1c3ccccc3c3c4c(c5c6ccccc6n2c5c31)CNC4=O [Lestaurtinib] + N.N.[Cl][Pt][Cl] [cisplatin] (first compound 0.004 µM, partner dose 1.6 µM)",88.6,119,123,86.7,81.7,–,–,116,101
"C[C@]12O[C@H](C[C@]1(O)CO)n1c3ccccc3c3c4c(c5c6ccccc6n2c5c31)CNC4=O [Lestaurtinib] + Cc1cc(Nc2cc(N3CCN(C)CC3)nc(/C=C/c3ccccc3)n2)n[nH]1 [ENMD2076] (first compound 0.004 µM, partner dose 0.04 µM)",80.1,109,63.6,84.3,84.6,–,–,109,107
"C[As](C)SC[C@H](NC(=O)CC[C@H](N)C(=O)O)C(=O)NCC(=O)O [Darinaparsin] + Cn1cc(/C=C2\C(=O)Nc3cccnc32)c2ccccc21 [GW441756] (first compound 0.4 µM, partner dose 0.4 µM)",84.4,99.7,95.1,95.9,73.3,78,74,91.8,–
"C[C@]12O[C@H](C[C@]1(O)CO)n1c3ccccc3c3c4c(c5c6ccccc6n2c5c31)CNC4=O [Lestaurtinib] + O=C(O)c1ccc2c(c1)nc(Nc1cccc(Cl)c1)c1ccncc12 [CX4945] (first compound 0.004 µM, partner dose 0.4 µM)",93.7,97.1,135,96.4,67.9,–,–,111,97.1
"C[As](C)SC[C@H](NC(=O)CC[C@H](N)C(=O)O)C(=O)NCC(=O)O [Darinaparsin] + C/C(O)=C(\C#N)C(=O)Nc1cc(Br)ccc1Br [LFM-A13] (first compound 0.4 µM, partner dose 2 µM)",88.2,97.2,105,84.4,94.8,93.3,79.6,81.6,–
"Cn1cc(C2=C(c3cn(C4CCN(Cc5ccccn5)CC4)c4ccccc34)C(=O)NC2=O)c2ccccc21 [Enzastaurin] + C[C@@H](Oc1cc(-c2cnn(C3CCNCC3)c2)cnc1N)c1c(Cl)ccc(F)c1Cl [Crizotinib] (first compound 0.8 µM, partner dose 0.2 µM)",105,87,74.6,93.7,114,–,–,94.3,–
"C[As](C)SC[C@H](NC(=O)CC[C@H](N)C(=O)O)C(=O)NCC(=O)O [Darinaparsin] + COc1ccc(-c2ccc3c(N4CCOCC4)nc(N4C[C@@H](C)O[C@@H](C)C4)nc3n2)cc1CO [KU0063794] (first compound 0.4 µM, partner dose 0.02 µM)",92,77.8,110,84.7,110,71.3,82.1,92.7,–
"Cn1cc(C2=C(c3cn(C4CCN(Cc5ccccn5)CC4)c4ccccc34)C(=O)NC2=O)c2ccccc21 [Enzastaurin] + CC(C)(C)c1cnc(CSc2cnc(NC(=O)C3CCNCC3)s2)o1 [SNS-032] (first compound 0.8 µM, partner dose 0.01 µM)",103,90,84.2,94.4,106,86.6,81.6,87.2,–
"Cn1cc(C2=C(c3cn(C4CCN(Cc5ccccn5)CC4)c4ccccc34)C(=O)NC2=O)c2ccccc21 [Enzastaurin] + N.N.[Cl][Pt][Cl] [cisplatin] (first compound 0.8 µM, partner dose 1.6 µM)",97.8,93.4,105,104,112,–,–,91.6,–
"C[C@]12O[C@H](C[C@]1(O)CO)n1c3ccccc3c3c4c(c5c6ccccc6n2c5c31)CNC4=O [Lestaurtinib] + OCCn1cc(-c2cnc3nnn(Cc4ccc5ncccc5c4)c3n2)cn1 [PF04217903] (first compound 0.004 µM, partner dose 1 µM)",93.1,127,97.1,97.9,88.2,105,106,85.9,–
"C[As](C)SC[C@H](NC(=O)CC[C@H](N)C(=O)O)C(=O)NCC(=O)O [Darinaparsin] + O=C(Oc1ccc([N+](=O)[O-])cc1)N1CCC(C(O)(c2ccc3c(c2)OCO3)c2ccc3c(c2)OCO3)CC1 [JZL184] (first compound 0.4 µM, partner dose 1 µM)",81.6,124,106,79.4,87.7,85.6,69.6,95.3,–
"N.N.[Cl][Pt][Cl] [cisplatin] + CCN(CC)CCCCNc1ncc2cc(-c3cc(OC)cc(OC)c3)c(NC(=O)NC(C)(C)C)nc2n1 [PD173074] (first compound 1.6 µM, partner dose 0.1 µM)",105,103,125,77.6,102,102,92.9,87.2,–
"C[C@]12O[C@H](C[C@]1(O)CO)n1c3ccccc3c3c4c(c5c6ccccc6n2c5c31)CNC4=O [Lestaurtinib] + C[As](C)SC[C@H](NC(=O)CC[C@H](N)C(=O)O)C(=O)NCC(=O)O [Darinaparsin] (first compound 0.004 µM, partner dose 0.4 µM)",88.7,125,119,108,83.8,–,–,104,–
"N.N.[Cl][Pt][Cl] [cisplatin] + C=CCn1c(=O)c2cnc(Nc3ccc(N4CCN(C)CC4)cc3)nc2n1-c1cccc(C(C)(C)O)n1 [MK1775] (first compound 1.6 µM, partner dose 0.02 µM)",98.4,97.7,76.1,72.2,89.6,91.5,83.1,81.7,–
"C[C@]12O[C@H](C[C@]1(O)CO)n1c3ccccc3c3c4c(c5c6ccccc6n2c5c31)CNC4=O [Lestaurtinib] + C=CCNC1=C2C[C@@H](C)C[C@H](OC)[C@H](O)[C@@H](C)/C=C(\C)[C@H](OC(N)=O)[C@@H](OC)/C=C\C=C(/C)C(=O)NC(=CC1=O)C2=O [Tanespimycin] (first compound 0.004 µM, partner dose 0.002 µM)",98.8,101,107,126,103,–,–,108,108
"C[C@]12O[C@H](C[C@]1(O)CO)n1c3ccccc3c3c4c(c5c6ccccc6n2c5c31)CNC4=O [Lestaurtinib] + Cc1nc(Nc2ncc(C(=O)Nc3c(C)cccc3Cl)s2)cc(N2CCN(CCO)CC2)n1 [dasatanib] (first compound 0.004 µM, partner dose 0.004 µM)",85.5,81.7,109,94.9,92.4,–,–,107,–
"C[C@]12O[C@H](C[C@]1(O)CO)n1c3ccccc3c3c4c(c5c6ccccc6n2c5c31)CNC4=O [Lestaurtinib] + CC(C)C[C@H](NC(=O)[C@H](Cc1ccccc1)NC(=O)c1cnccn1)B(O)O [Bortezomib] (first compound 0.004 µM, partner dose 0.001 µM)",88.6,89.6,114,105,99.9,–,–,95.3,94.4
